# Experimental data published in the supplement of paper PMC8728848.
# This is one part of the list.
# B1: Siglec-9 (Homo sapiens), Q9Y336 (protein)
# chain: MLLLLLPLLWGRERAEGQTSKLLTMQSSVTVQEGLCVHVPCSFSYPSHGWIYPGPVVHGYWFREGANTDQDAPVATNNPARAVWEETRDRFHLLGDPHTKNCTLSIRDARRSDAGRYFFKMEKGSIKWNYKHHRLSVNVTALTHRPNILIPGTLESGCPQNLTCSVPWACEQGTPPMISWIGTSVSPLDPSTTRSSVLTLIPQPQDHGTSLTCQVTFPGASVTTNKTVHLNVSYPPQNLTMTVFQGDGTVSTVLGNGSSLSLPEGQSLRLVCAVDAVDSNPPARLSLSWRGLTLCPSQPSNPGVLELPWVHLRDAAEFTCRAQNPLGSQQVYLNVSLQSKATSGVTQGVVGGAGATALVFLSFCVIFVVVRSCRKKSARPAAGVGDTGIEDANAVRGSASQGPLTEPWAEDSPPDQPPPASARSSVGEGELQYASLSFQMVKPWDSRGQEATDTEYSEIKIHR
# What was measured:
# Test in all cases: glycan array binding signal (z-score within array); higher = stronger binding
# Conditions in all cases: glycan notation: IUPAC condensed, linker removed; mutation: R120K
# Kdn(a2-3)Gal(b1-3)GlcNAc = target: Kdn(a2-3)Gal(b1-3)GlcNAc
# In short: (§1)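 From the Consortium for Functional Glycomics database, 3228 arrays were curated, keeping only those whose protein sequence was available. Binding is given as a within-array Z-score averaged across arrays sharing a protein sequence and across linkers. Negative Z-scores can be read as non-binding.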
# Kdn(a2-3)Gal(b1-4)Glc = target: Kdn(a2-3)Gal(b1-4)Glc
# In short: as §1
# Kdn(a2-3)Gal(b1-4)GlcNAc = target: Kdn(a2-3)Gal(b1-4)GlcNAc
# In short: as §1
# [1] = target: Kdn(a2-3)Gal(b1-4)[Fuc(a1-3)]GlcNAc
# In short: as §1
# Kdn(a2-6)Gal(b1-4)GlcNAc = target: Kdn(a2-6)Gal(b1-4)GlcNAc
# In short: as §1
# [2] = target: Man(a1-2)Man(a1-2)Man(a1-3)Man
# In short: as §1
# [3] = target: Man(a1-2)Man(a1-2)Man(a1-6)[Man(a1-3)]Man
# In short: as §1
# Man(a1-2)Man(a1-3)Man = target: Man(a1-2)Man(a1-3)Man
# In short: as §1
# [4] = target: Man(a1-2)Man(a1-3)[Man(a1-2)Man(a1-6)]Man
# In short: as §1
# [5] = target: Man(a1-2)Man(a1-3)[Man(a1-2)Man(a1-6)]Man(a1-6)[Man(a1-2)Man(a1-2)Man(a1-3)]Man
# In short: as §1
# [6] = target: Man(a1-2)Man(a1-3)[Man(a1-2)Man(a1-6)]Man(a1-6)[Man(a1-2)Man(a1-2)Man(a1-3)]Man(b1-4)GlcNAc(b1-4)GlcNAc
# In short: as §1
# [7] = target: Man(a1-2)Man(a1-3)[Man(a1-6)]Man(a1-6)[Man(a1-2)Man(a1-3)]Man(b1-4)GlcNAc(b1-4)GlcNAc
# In short: as §1
# [8] = target: Man(a1-2)Man(a1-6)[Man(a1-3)]Man(a1-6)[Man(a1-2)Man(a1-2)Man(a1-3)]Man
# In short: as §1
# [9] = target: Man(a1-2)Man(a1-6)[Man(a1-3)]Man(a1-6)[Man(a1-2)Man(a1-2)Man(a1-3)]Man(b1-4)GlcNAc(b1-4)GlcNAc
# In short: as §1
# Man(a1-3)[Man(a1-6)]Man = target: Man(a1-3)[Man(a1-6)]Man
# In short: as §1
# [10] = target: Man(a1-3)[Man(a1-6)]Man(a1-6)[Man(a1-2)Man(a1-3)]Man(b1-4)GlcNAc(b1-4)GlcNAc
# In short: as §1
# [11] = target: Man(a1-3)[Man(a1-6)]Man(a1-6)[Man(a1-3)]Man
# In short: as §1
# [12] = target: Man(a1-3)[Man(a1-6)]Man(a1-6)[Man(a1-3)]Man(b1-4)GlcNAc(b1-4)GlcNAc
# In short: as §1
# [13] = target: Man(a1-3)[Man(a1-6)]Man(b1-4)GlcNAc(b1-4)GlcNAc
# In short: as §1
# [14] = target: Man(a1-3)[Man(a1-6)]Man(b1-4)GlcNAc(b1-4)[Fuc(a1-6)]GlcNAc
# In short: as §1
# Man(a1-6)Man = target: Man(a1-6)Man
# In short: as §1
# Man(b1-4)GlcNAc = target: Man(b1-4)GlcNAc
# In short: as §1
# MurNAc(b1-4)GlcNAc = target: MurNAc(b1-4)GlcNAc
# In short: as §1
# Neu5Ac(a2-3)Gal = target: Neu5Ac(a2-3)Gal
# In short: as §1
# [15] = target: Neu5Ac(a2-3)Gal(b1-3)GalNAc
# In short: as §1
# [16] = target: Neu5Ac(a2-3)Gal(b1-3)GalNAc(b1-3)Gal(a1-4)Gal(b1-4)Glc
# In short: as §1
# [17] = target: Neu5Ac(a2-3)Gal(b1-3)GalNAc(b1-4)Gal(b1-4)Glc
# In short: as §1
# [18] = target: Neu5Ac(a2-3)Gal(b1-3)GalNAc(b1-4)[Neu5Ac(a2-3)]Gal(b1-4)Glc
# In short: as §1
# [19] = target: Neu5Ac(a2-3)Gal(b1-3)GalNAc(b1-4)[Neu5Ac(a2-8)Neu5Ac(a2-3)]Gal(b1-4)Glc
# In short: as §1
# [20] = target: Neu5Ac(a2-3)Gal(b1-3)GalNAc6S
# In short: as §1
# [21] = target: Neu5Ac(a2-3)Gal(b1-3)GlcNAc
# In short: as §1
# [22] = target: Neu5Ac(a2-3)Gal(b1-3)GlcNAc(b1-2)Man
# In short: as §1
# [23] = target: Neu5Ac(a2-3)Gal(b1-3)GlcNAc(b1-2)Man(a1-3)[GlcNAc(b1-4)][Neu5Ac(a2-3)Gal(b1-3)GlcNAc(b1-2)Man(a1-6)]Man(b1-4)GlcNAc(b1-4)GlcNAc
# In short: as §1
# [24] = target: Neu5Ac(a2-3)Gal(b1-3)GlcNAc(b1-2)Man(a1-3)[Neu5Ac(a2-3)Gal(b1-3)GlcNAc(b1-2)Man(a1-6)]Man(b1-4)GlcNAc(b1-4)GlcNAc
# In short: as §1
# [25] = target: Neu5Ac(a2-3)Gal(b1-3)GlcNAc(b1-2)[Neu5Ac(a2-3)Gal(b1-3)GlcNAc(b1-4)]Man(a1-6)[Neu5Ac(a2-3)Gal(b1-3)GlcNAc(b1-2)Man(a1-3)]Man(b1-4)GlcNAc(b1-4)GlcNAc
# In short: as §1
# [26] = target: Neu5Ac(a2-3)Gal(b1-3)GlcNAc(b1-3)Gal(b1-3)GlcNAc
# In short: as §1
# [27] = target: Neu5Ac(a2-3)Gal(b1-3)GlcNAc(b1-3)Gal(b1-4)GlcNAc
# In short: as §1
# [28] = target: Neu5Ac(a2-3)Gal(b1-3)GlcNAc(b1-3)GalNAc
# In short: as §1
binder,measurement,setting,value
B1,glycan array binding signal (z-score),Kdn(a2-3)Gal(b1-3)GlcNAc,-0.056
same,glycan array binding signal (z-score),Kdn(a2-3)Gal(b1-4)Glc,0.194
same,glycan array binding signal (z-score),Kdn(a2-3)Gal(b1-4)GlcNAc,-0.341
same,glycan array binding signal (z-score),[1],-0.297
same,glycan array binding signal (z-score),Kdn(a2-6)Gal(b1-4)GlcNAc,0.125
same,glycan array binding signal (z-score),[2],-0.013
same,glycan array binding signal (z-score),[3],0.213
same,glycan array binding signal (z-score),Man(a1-2)Man(a1-3)Man,-0.111
same,glycan array binding signal (z-score),[4],-0.41
same,glycan array binding signal (z-score),[5],-0.436
same,glycan array binding signal (z-score),[6],-0.231
same,glycan array binding signal (z-score),[7],-0.826
same,glycan array binding signal (z-score),[8],-0.231
same,glycan array binding signal (z-score),[9],0.084
same,glycan array binding signal (z-score),Man(a1-3)[Man(a1-6)]Man,-0.048
same,glycan array binding signal (z-score),[10],0.271
same,glycan array binding signal (z-score),[11],-0.329
same,glycan array binding signal (z-score),[12],0.694
same,glycan array binding signal (z-score),[13],-0.278
same,glycan array binding signal (z-score),[14],-0.037
same,glycan array binding signal (z-score),Man(a1-6)Man,0.192
same,glycan array binding signal (z-score),Man(b1-4)GlcNAc,-0.372
same,glycan array binding signal (z-score),MurNAc(b1-4)GlcNAc,-0.723
same,glycan array binding signal (z-score),Neu5Ac(a2-3)Gal,-0.145
same,glycan array binding signal (z-score),[15],4.95
same,glycan array binding signal (z-score),[16],-0.208
same,glycan array binding signal (z-score),[17],0.412
same,glycan array binding signal (z-score),[18],-0.03
same,glycan array binding signal (z-score),[19],0.069
same,glycan array binding signal (z-score),[20],-0.189
same,glycan array binding signal (z-score),[21],-0.28
same,glycan array binding signal (z-score),[22],0.105
same,glycan array binding signal (z-score),[23],0.17
same,glycan array binding signal (z-score),[24],3.12
same,glycan array binding signal (z-score),[25],-0.426
same,glycan array binding signal (z-score),[26],-0.724
same,glycan array binding signal (z-score),[27],-0.308
same,glycan array binding signal (z-score),[28],0.017
